Measured values as given in PubChem BioAssay AID360 (National Center for Advancing Translational Sciences (NCATS), 2006).
In all, about 48,000 compounds went through this assay and about 550 (1.1%) were called active. Another 4% or so got no clear call; they are omitted. Rule as the data show it: active = potency below about 15 µM; inconclusive = mostly about 16 µM to 33 µM; inactive = weaker than that. Some of the results follow.

These compounds were tested against Lysosomal acid glucosylceramidase (Homo sapiens) (UniProt P04062) (assay: Glucocerebrosidase). Settings: purified enzyme, resorufin glucoside fluorescence (screen aimed at inhibitors), 20 min.
Chain of UniProt P04062 (P04062 whole entry, looked up): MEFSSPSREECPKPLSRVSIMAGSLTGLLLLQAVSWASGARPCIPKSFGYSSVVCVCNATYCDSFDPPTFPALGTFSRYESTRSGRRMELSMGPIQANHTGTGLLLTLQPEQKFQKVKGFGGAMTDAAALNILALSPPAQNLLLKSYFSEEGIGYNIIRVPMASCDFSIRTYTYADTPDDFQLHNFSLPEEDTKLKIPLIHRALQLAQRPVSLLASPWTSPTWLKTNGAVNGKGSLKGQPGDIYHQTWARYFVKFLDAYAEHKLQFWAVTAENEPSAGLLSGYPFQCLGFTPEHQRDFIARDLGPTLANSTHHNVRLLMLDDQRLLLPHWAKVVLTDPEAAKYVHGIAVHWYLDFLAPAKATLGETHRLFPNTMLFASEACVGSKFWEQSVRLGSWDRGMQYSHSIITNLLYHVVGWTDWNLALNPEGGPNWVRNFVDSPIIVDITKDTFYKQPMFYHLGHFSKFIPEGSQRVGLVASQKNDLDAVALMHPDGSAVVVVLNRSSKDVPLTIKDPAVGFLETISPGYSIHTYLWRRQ
In short: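 Wild-type enzyme at 0.2 nM final in 50mM citric acid/KH2PO4, 10mM sodium taurocholate, 0.01% tween-20, pH 5.9, with resorufin beta-D-glucopyranoside at 30 uM final. Compounds titrated, 20 min at RT, red fluorescence read; AC50 from titration.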
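Also: the screen sought inhibitors.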
Potency is read from the fitted curve at half-maximal effect.

Potency, inactive:
COC(=O)CCN(c1ccccc1)S(=O)(=O)c1ccc(OC)cc1 > 76.9 µM
Cn1c(=O)cc(-c2ccccc2)c2ccccc21 > 76.9 µM
COC(=O)c1ccccc1NC(=O)CSc1nnc(CNS(=O)(=O)c2ccc(C)cc2)n1C > 76.9 µM
N=c1sccn1CC(=O)Nc1ccccc1Cc1ccccc1 > 76.9 µM
CCC(=O)NC(=Nc1nc2ccccc2s1)NC(=O)CC > 76.9 µM
COC(=O)C1(S(=O)(=O)C2(C(=O)OC)CCCC2)CCCC1 > 76.9 µM
COc1ccc(C2(C(=O)NCCN3CCOCC3)CCOCC2)cc1 > 76.9 µM
COc1ccc(NC(=O)CN2C(=O)C(C)Oc3ccccc32)cc1 (stereo unspecified) > 76.9 µM
CCn1c(CCn2ccnc2C)n[nH]c1=S > 76.9 µM
COc1ccc(C2N(C(=O)c3ccccc3)CCN2C(=O)c2ccccc2)cc1
O=C(c1c(F)c(F)c(F)c(F)c1F)N1CCc2ccccc21 > 76.9 µM
COc1ccc2c(=O)c3c(=O)n(Cc4ccco4)c(C(C)C)nc3oc2c1 > 76.9 µM
C=CCNC(=O)C1CC(=O)N(c2ccc(OCC(=O)NCc3ccccc3)cc2)C1 (stereo unspecified) > 76.9 µM
CCC(=O)c1ccccc1OCCN1C(=O)NC(C)(C)C1=O > 76.9 µM
CN1CC(=O)N(CC(=O)Nc2ccc(N(C)C)cc2)c2ccccc2C1=O > 76.9 µM
Cc1ccc2nc(CSc3nnc(-c4ccco4)o3)cc(=O)n2c1 > 76.9 µM
COCc1ccccc1Cn1cnc2c1c(=O)n(C)c(=O)n2C > 76.9 µM
COCCNC(=O)c1sc2ncn(CC(=O)N3CCCCC3)c(=O)c2c1C
CC(C)CCn1nnnc1C(c1ccc(F)cc1)N1CCN(C(=O)c2ccco2)CC1 (stereo unspecified) > 76.9 µM
COc1cc(S(=O)(=O)N2CCC(C(N)=O)CC2)c(C)cc1C > 76.9 µM
CN1CCN(C(=O)c2ccccc2N(Cc2ccccc2)S(C)(=O)=O)CC1 > 76.9 µM
Cc1cc(NC(=O)CSc2nnc(-c3ccc(S(=O)(=O)N4CCCC4)cc3)n2C)no1 > 76.9 µM
Nc1ccccc1SCc1cn2ccccc2n1
COc1cc(-c2nnc3sc(-c4cccs4)nn23)cc(OC)c1OC > 76.9 µM
Cc1cc(C(C#N)c2ccccc2)n2ncnc2n1 (stereo unspecified) > 76.9 µM
COc1ccc(C(=O)Nn2c(C3CCC3)nc3ccccc3c2=O)c(OC)c1 > 76.9 µM
COC(=O)c1sc(N)c(C(=O)OC)c1CSc1nnc(-c2ccccc2Cl)n1C > 76.9 µM
COCCn1c(Cc2ccccc2)nnc1SCC(=O)Nc1cc(C)on1 > 76.9 µM
CCOC(=O)c1[nH]c(C)c(C(=O)OCC(=O)NC(=O)NC(C)(C)C)c1C > 76.9 µM
COCCCNC(=O)c1ccc(N2CCCC2)c(NS(=O)(=O)c2ccc(C)cc2)c1 > 76.9 µM
COc1ccc(OC)c(C(=O)CSc2nnc(-c3cccs3)o2)c1 > 76.9 µM
COc1ccc(Cn2nnnc2C(c2cccs2)N2CCSCC2)cc1 (stereo unspecified) > 76.9 µM
CCc1c(C(=O)NCCc2ccc(OC)c(OC)c2)[nH]c(C)c1C(C)=O > 76.9 µM
COc1ccc(N2CCN(S(=O)(=O)/C=C/c3ccccc3)CC2)cc1 > 76.9 µM
Cc1ccc(S(=O)(=O)NCCSc2nnnn2C)cc1 > 76.9 µM
COc1ccc(-n2c(N)c(Br)c(=O)[nH]c2=O)cc1 > 76.9 µM
Nn1c(SCC(=O)Nc2ccccc2)nnc1-c1cccnc1 > 76.9 µM
CCOC(=O)C1=C(O)CCn2c1nc1ccccc12 > 76.9 µM
CCCCC(=O)Nc1cccc(NC(=O)c2ccc(Br)o2)c1 > 76.9 µM
CC(=O)N1CCCc2cc(S(=O)(=O)NCCC3=CCCCC3)ccc21 > 76.9 µM
CCCCn1nc(C(=O)N2CCc3ccccc32)c2ccccc2c1=O > 76.9 µM
CN(C)c1nc2ccccc2c(N)c1-c1ccccc1 > 76.9 µM
Cc1[nH]c(-c2ccco2)nc1C(=O)O > 76.9 µM
Cc1ccccc1CSc1nnc(-c2ccco2)n1Cc1ccco1 > 76.9 µM
O=C(c1ccco1)N1CCCSC1=Nc1ccccc1 > 76.9 µM
CCOC(=O)N1CCC(N(C(=O)Nc2ccccc2)C(C)CC)CC1 (stereo unspecified) > 76.9 µM
CC1CCN(C(=O)Nc2cccc(NC(=O)N3CCC(C)CC3)c2)CC1 > 76.9 µM
N#Cc1ccccc1CSc1nc(N2CCCCC2)nc(N2CCCCC2)n1 > 76.9 µM
C=CCn1c(=O)c2c(nc3n2CCN3c2cccc(Cl)c2C)n(C)c1=O > 76.9 µM
N#Cc1nc(-c2ccco2)oc1NCc1cccnc1 > 76.9 µM
CCOc1ccc(NC(=O)COC(=O)Cn2cnnn2)cc1OCC > 76.9 µM
COC(=O)c1c(NC(=O)CN2CCCC(C)C2)c2c(C)cccc2n1C (stereo unspecified) > 76.9 µM
Cc1c(N(C(=O)c2cc(=O)[nH]c3ccccc23)C(C)C)c(=O)n(-c2ccccc2)n1C > 76.9 µM
c1ccc2c(-c3nc4ncccc4o3)cccc2c1 > 76.9 µM
CCN(CC)C(=O)CSc1nnc([C@H](Cc2c[nH]c3ccccc23)NC(=O)OC(C)(C)C)o1 > 76.9 µM
COc1ccc(S(=O)(=O)N(CC(=O)O)c2ccccc2)cc1 > 76.9 µM
Cc1sc2ncn(-n3c(C)ccc3C)c(=O)c2c1C > 76.9 µM
O=C(c1cccs1)N(Cc1ccco1)Cc1cc2ccccc2[nH]c1=O > 76.9 µM
Brc1ccccc1-c1nnc(COc2ncnc3c2cnn3-c2ccccc2)o1 > 76.9 µM
C/C(O)=C\c1nc(=O)c2c(C)cc(C)nc2n1-c1ccccc1 > 76.9 µM
Cc1noc(C)c1S(=O)(=O)N1CCC(C(=O)N2CCN(Cc3ccc4c(c3)OCO4)CC2)CC1 > 76.9 µM
CCCSc1nc2c(cnn2-c2ccc(Cl)cc2)c(=O)[nH]1 > 76.9 µM
COC(=O)c1ccc2c(=O)n(CCN3CCOCC3)c(=S)[nH]c2c1 > 76.9 µM
CCN1CC=C2C(C#N)=C(N)C(C#N)(C#N)C(CCc3ccccc3)C2C1 (stereo unspecified) > 76.9 µM
CSc1nnc(NC(=O)c2ccc(C)c(S(=O)(=O)N3CCOCC3)c2)s1 > 76.9 µM
CCCCN(C)CCCNC(=O)CS(=O)Cc1nc(-c2ccc(OC)c(OC)c2)oc1C (stereo unspecified) > 76.9 µM
O=C1CC(N2CCOCC2)C(=O)N1c1ccccc1Cl (stereo unspecified) > 76.9 µM
O=C(CCSc1ccccc1)N1CCN(C(=O)c2ccco2)CC1 > 76.9 µM
Cc1cc(NC2C3CC4CC(C3)CC2C4)n2ncnc2n1 (stereo unspecified) > 76.9 µM
CCN(C(=O)c1coc(=O)c2ccccc12)c1cc(OC)ccc1OC > 76.9 µM
Cc1ccc(S(=O)(=O)Cc2ccc(C(=O)N3CCN(c4cc(C)ccc4C)CC3)o2)cc1
COc1ccc2c(c1)C1(Nc3ccccc3-c3nc4ccccc4n31)C(=O)N2C (stereo unspecified) > 76.9 µM
Cc1ccccc1-c1ccc(C=Nc2c(C)n(C)n(-c3ccccc3)c2=O)o1 > 76.9 µM
CCN1C(=O)C(O)(C2COC(C)(C)CC2=O)c2cc(Br)ccc21 (stereo unspecified) > 76.9 µM
CCSc1oc(-c2ccccc2)nc1S(=O)(=O)c1ccccc1 > 76.9 µM
O=C(Oc1ccc(Cl)cc1N1C(=O)CCC1=O)c1ccco1 > 76.9 µM
Cc1nn(-c2ccccc2)c(Cl)c1C(=O)Nc1nnc(C2CCCC2)s1 > 76.9 µM
CCC1CCCCN1C(=O)CSc1nnc(CNC(=O)c2cc(OC)c(OC)c(OC)c2)o1 (stereo unspecified) > 76.9 µM
Cn1cc(C(=O)c2ccccc2)cc1-c1nc2ccccc2n1C > 76.9 µM
COc1cc(OC)cc(-c2nnc(SCC(=O)N3CCOCC3)o2)c1 > 76.9 µM
Cn1c(SCc2ccccc2)nnc1-c1ccncc1 > 76.9 µM
COc1ccc(C(=O)CSc2nnc(-c3ccccn3)n2Cc2ccco2)cc1 > 76.9 µM
N#Cc1nc(Cc2cccc3ccccc23)oc1NCCCN1CCOCC1 > 76.9 µM
COc1cccc(C2C(C#N)=C(N)Oc3c2oc(CO)cc3=O)c1OC (stereo unspecified) > 76.9 µM
C=CCn1c(N)cc(=O)nc1SCC(=O)Nc1ccccc1 > 76.9 µM
Cc1c(Cl)ccc2c1NC(=O)[C@]21N[C@@H](CCC(N)=O)[C@H]2C(=O)N(c3ccc(F)cc3)C(=O)[C@H]21 > 76.9 µM
CCOC(=O)N1CCN(C2CC(=O)N(c3ccc(C)cc3)C2=O)CC1 (stereo unspecified) > 76.9 µM
Cn1nnnc1SCc1cn2cccnc2n1 > 76.9 µM
COc1ccc(CCC(=O)NCc2cn3ccsc3n2)cc1 > 76.9 µM
Cc1cnc(NC(=O)CCCSc2nc3ccccc3s2)s1 > 76.9 µM
CCN(CC)C(=O)CSc1nc2ncc(Cl)cc2[nH]1 > 76.9 µM
